Data as given in the supplement of paper PMC11417369.
± gives the standard deviation of the averaged measurements. The list shows a part of the results.

test system: PfAP2-LT AP2 domain (GST-tagged); test: gcPBM binding intensity (ln(normalized median fluorescence intensity)); higher = stronger DNA binding
In short: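 An Agilent 4 × 180k array of primer-extended double-stranded 36-bp intergenic genomic probes, with negative controls, was incubated for 1 h with GST-tagged P. falciparum DNA-binding domains expressed in E. coli. Alexa488 anti-GST antibody detected bound protein, scanned at 488 nm. Binding intensity is the highest Masliner-normalised natural-log median intensity across replicate spots of either probe orientation.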

| Sequence | gcPBM binding intensity (ln) |
| --- | --- |
| TTTTATGTTTCAAAATGTACATTAAAATATACCATA [XGTACX_site1713] | 8.35 ± 0.41 |
| TTATTTATAAATATTAATTTTTTTTTTTTTTTTTTT [XGTACX_negctrl_site105] | 8.01 ± 0.5 |
| AAAATATATATATATATATATATATGTATACTCCTA [XGTACX_negctrl_site312] | 9.24 ± 0.4 |
| CATATGCATACTATACGTACATATGTATATAATATA [XGTACX_site7738] | 8.84 ± 0.42 |
| TTAATTAAAACGAATACACACATAAATATATAAAAG [CACACA_site1254] | 8.96 ± 0.42 |
| ATATATATATTTTTTAAACACACACCGAAATATTTG [CACACA_site8937] | 9.05 ± 0.3 |
| TTTTATTATTGAATACTAGTATATATAATATGAAGA [CACACA_negctrl_site910] | 8.36 ± 0.42 |
| GTACAAATGTTGTGTATATATACACACATACATATA [XGTACX_negctrl_site276] | 9.11 ± 0.26 |
| AACTTACTTGGACATACACACATATAGATTTATATA [CACACA_site7412] | 9.02 ± 0.37 |
| ATGTAGTTTTATCAGTGTACAAGTATTTTATCACAT [XGTACX_site8958] | 8.96 ± 0.49 |
| ATAAGAATCATATTTAAACACACATACATATATATA [CACACA_site9106] | 8.93 ± 0.41 |
| TTTTTATTGGTGAATACACACGTATATATATATTAT [CACACA_site8756] | 9.03 ± 0.4 |
| ATTAAATAAACCATTACACACTTTTATGTTTTGAAA [CACACA_site1143] | 8.7 ± 0.4 |
| ATTATATTAACAATGACATGCAATTCTTAATCCTTA [TGCATGCA_site648] | 8.54 ± 0.4 |
| AAAAAAAAAAAATACACACACATAAAAAAAAAAATA [CACACA_site1858] | 9.38 ± 0.45 |
| AAAAAAAAATTGTGTACACATAATTATATCATATGT [CACACA_site4500] | 8.81 ± 0.42 |
| ATGGATAATAAGTTTACACACAAAAAAAAAGAAAAA [CACACA_site861] | 9.02 ± 0.57 |
| AAATAAAATAAATAATATAAAATAATATATAAAAAA [CACACA_negctrl_site1777] | 8.65 ± 0.63 |
| TTTTGTTAAAAAGATGTATATTTTATAAATATTTAT [CACACA_negctrl_site101] | 8.22 ± 0.54 |
| CACAAACAAAAACACACACACACACCGACAAAAATG [CACACA_site5362] | 10.24 ± 0.092 |
| TATAAATATTTATACACACACACATTAATACCTATA [CACACA_site7604] | 9.71 ± 0.19 |
| AAAAGAAGATAATACAGTACAGAATAATATAAAATA [XGTACX_site5962] | 8.93 ± 0.52 |

| Sequence | gcPBM binding intensity (ln) |
| --- | --- |
| AGAAAGAAGATATATACACACAAAAAAAGATATATA [CACACA_site6779] | 9.17 ± 0.49 |
| TTCTTTCTAGAATATTGTACATATATTGTTATTATA [XGTACX_site8425] | 8.75 ± 0.41 |
| GTCGAGGATATATAAAGTACATATATATATATGATA [XGTACX_site1128] | 8.94 ± 0.42 |
| TAATGTATCTAAAATTGTACAAATATAAATATAAAT [XGTACX_site2764] | 8.71 ± 0.44 |
| CATACATATAAACACACACACACACCCACCCACAAA [CACACA_site8059] | 10.4 |
| TAGTTAGCCCAAGGGGTGCTAATTACTATCTAAATA | 8.46 ± 0.45 |
| TTTATAAATATTCTCACACACTTTTTATTTTAACAA [CACACA_site6454] | 8.63 ± 0.56 |
| AACACCAATTCATATGCACACACATCTGCATATTAT [CACACA_site8523] | 9.63 ± 0.39 |
| TATAGAAGCAAATTATGTACACAATATGGAAAATCA [XGTACX_site3345] | 9.06 ± 0.51 |
| ATTTAAAAAATATATTGTACATATTTTATTATGTTT [XGTACX_site2984] | 8.65 ± 0.6 |
| TACAGTTTTTCTTTGAATTTATCAAGTTTTTTTCCC [XGTACX_negctrl_site60] | 8.67 ± 0.49 |
| TAGTTACCTTAATATTGTACTTTTCTTTCATATATG [XGTACX_site1309] | 8.88 ± 0.56 |
| CACTAAATAAGGAAAGTGCATAAAATAAAGGTTATA [GTGCAC_site9793] | 8.9 ± 0.49 |
| ATAGTTTCTGGTAGCTGTACGAGTCGTAGAGTGCAG [XGTACX_site2022] | 8.83 ± 0.52 |
| GTGTCAAATTTTATAACACACAAAAGGTTATATAAG [CACACA_site7839] | 8.85 ± 0.37 |
| TATTTATACCTATACACACACACACGGATATTTATA [CACACA_site7123] | 9.73 ± 0.17 |
| GATAAAATCACTGGTGCATGTAGATATATAATATTA [TGCATGCA_site589] | 8.8 ± 0.43 |
| AATTAACAAAAACACACACACACACCGACAAAAAAA [CACACA_site4444] | 10.1 ± 0.23 |
| ATATGCTTATTGTAAAGTACATTATTATTTTTCCTA [XGTACX_site5479] | 8.66 ± 0.51 |
| CATATATACGCATACACACACACACCCACACCCACA [CACACA_site1725] | 10.16 ± 0.05 |
| TACAAATATATATGCACACACATATACATACAGATA [CACACA_site5238] | 9.45 ± 0.42 |
| TGATGAAAATCTACATGAATGTTTTTATATCTATAT [GTGCAC_negctrl_site139] | 8.76 ± 0.44 |

| Sequence | gcPBM binding intensity (ln) |
| --- | --- |
| ATGAATAAATAAGACACACACGAAAATAAGTAAAAA [CACACA_site4216] | 9.57 ± 0.45 |
| TATTTTGATTATTCAGTGTATAAATATATATATATA [CACACA_negctrl_site545] | 8.59 ± 0.26 |
| CCAATGTTTTCTTGTGTACACATCATTAAAGAAAAA [CACACA_site5300] | 8.58 ± 0.41 |
| ATTCTATATGAAAAATGTACAAATAAAAATTCTAAG [XGTACX_site8900] | 8.59 ± 0.45 |
| CATGAAAATATTATGTGTACTTAATGCACATTCAAA [XGTACX_site1952] | 8.57 ± 0.42 |
| CACGCATACAGACACACACACACACCGATATATATA [CACACA_site8113] | 10.1 ± 0.37 |
| AATATATTGTTTCCTGATATTAAATTCAATTTAATG [GTGCAC_negctrl_site22] | 8.48 ± 0.4 |
| TAAAGAGAGACATCAACACACATACGTATGTATAGA [CACACA_site4896] | 9.02 ± 0.43 |
| ATTTACCTATATATTTGTACTTACATAATGCTACCT [XGTACX_site2693] | 9.01 ± 0.54 |
| TAAAAAAAAATATATAAACACACATATTTATATACA [CACACA_site8469] | 8.65 ± 0.47 |
| TATATATATTTTGGCTGTACATCAGCGTATATTTTT [XGTACX_site3233] | 8.77 ± 0.49 |
| AATAAATATATACATTGTACATATATAATATATATA [XGTACX_site1458] | 8.69 ± 0.47 |
| TAAATTATAATATGCACACAAAATGTTATATTAAAA [CACACA_site376] | 8.76 ± 0.48 |
| CCTATCCATGCATATACACACATATCTATTTATATA [CACACA_site6886] | 9.15 ± 0.39 |
| AAAAAAAAACAAAAAAGTACAAAATAAAAATACGTT [XGTACX_site4566] | 8.9 ± 0.55 |
| CTCTTCATATATAATTGTACACACAAAAACGACATT [XGTACX_site4287] | 9.09 ± 0.39 |
| TTAATTTTTTTTTAAACACACATTTTTTTATTTAAG [CACACA_site2738] | 8.42 ± 0.54 |
| TGAATAAAATATTATACACACATATGTATATAACAT [CACACA_site974] | 8.98 ± 0.35 |
| TATTAATTTTTTTTTTTTTTTTTTTTTTTTTTTTTT [CACACA_negctrl_site1329] | 8.63 ± 0.18 |
| GTTATAAATAATAAATAAATAATCAAATGAAGAATG [CACACA_negctrl_site653] | 8.78 ± 0.5 |
| GAATATTAAATATTATCACACACATAATTATTTCCA [CACACA_site8730] | 9.07 ± 0.35 |
| AAATAAAAAAAAGCCTGTACATGTTCATAAATTTTT [XGTACX_site7925] | 8.68 ± 0.45 |

| Sequence | gcPBM binding intensity (ln) |
| --- | --- |
| ATATATATTTATAATCGTACGTACCTAACAATACAA [XGTACX_site4510] | 8.88 ± 0.35 |
| TCCTTATTTCATATTTTTAAATAATACAAAAAAAAA [CACACA_negctrl_site773] | 7.95 ± 0.42 |
| TTCTATTTATATGTGGGTACTAATTTTTTTTCTTTT [XGTACX_site7104] | 8.82 ± 0.47 |
| CTTAAATTAATTTGGGTGCATATATTTGTACACATT [GTGCAC_site9948] | 8.81 ± 0.46 |
| ATAAATATACCAATCGGTACACATTTATACAAACAA [XGTACX_site7484] | 8.92 ± 0.58 |
| AGAATAAATATGTGGTGTTATAGTATTAATGTTAAT [TGCATGCA_negctrl_site62] | 8.76 ± 0.39 |
| AATAAATACACATACACACACGACGCTAGTATATGT [CACACA_site6627] | 9.42 ± 0.23 |
| GCTATAAATATAATCACACATAAATATATAATATAT [CACACA_site5144] | 8.73 ± 0.37 |
| AGGAGGATAGTTCACAGTACCCAGGAAATCTGCGGA [XGTACX_site4928] | 8.72 ± 0.54 |
| TATGCAATAAAATATACACACAATATACTTATATAT [CACACA_site7691] | 8.99 ± 0.38 |
| TTTATTTTCCAAAGGGTGCACATAGTTAAAACGATA [GTGCAC_site9855] | 8.59 ± 0.47 |
| TGATTAATTTTTAAATGTACTTAAAAATATACTTAT [XGTACX_site2872] | 8.21 ± 0.49 |
| ATCTATATTCATAATACACACATTCTGTAGCATTAT [CACACA_site7058] | 9.13 ± 0.34 |
| TATATCATATAAAACCGTACATACATACTTAATTGT [XGTACX_site6822] | 8.74 ± 0.46 |
| AACAGGTCATAATTTACACACTATATATTTTATTAT [CACACA_site670] | 9.06 ± 0.35 |
| TAACATATGGGACACACATGCAACTGTTATATGTCC [TGCATGCA_site959] | 9.12 ± 0.47 |
| AGAAAACATATGTTTTGTACTTAAGAAAAAAAAAAA [XGTACX_site4231] | 8.58 ± 0.58 |
| TTTTATATGTTATATACACACATATAAATAAATATA [CACACA_site7418] | 8.6 ± 0.33 |
| AAAAAAAAATTAAAATGTACACATAAAAAAAAAAAA [XGTACX_site794] | 8.76 ± 0.57 |
| AAAAATAAATAAATATGTACATATATACATATATAT [XGTACX_site5892] | 8.82 ± 0.45 |
| AAAAAAAAAACACGCGCACACACACCCACCCACCCA [CACACA_site8689] | 10.365 ± 0.0071 |
| ACTAATAAAGGTGTAATACACACTATAAAAAGGAAT [CACACA_site1124] | 9.14 ± 0.48 |
